Among all 410,000 compounds or so, about 6,400 (1.6%) were called active. Inconclusive results, whose numbers are uncertain, are shown with a selection of clear calls. Calls come from the whole dose curve; as a rule, active = well fitted inhibition curve with a large enough effect; inconclusive = small, poorly fitted or top-dose-only effect; inactive = no such curve, though single readings can be large or run the other way. Potencies of inconclusive entries are left out as doubtful fits.
biological target: Glucagon-like peptide 1 receptor (Homo sapiens) (UniProt P43220); assay: qHTS of GLP-1 Receptor Inverse Agonists (Inhibition Mode); settings: HEK293 GLP-1R CRE-luciferase, luminescence, 24 h, GLP-1R form is constitutively active; activity change, negative = inhibition: at 38.3 µM (top of the series) unless noted; note: nearly all actives have a fitted effect of over 55% in size
Outline: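 Inverse agonism was detected as reduced cAMP-driven luciferase luminescence after 24 h compound treatment. The cells were HEK293 clones expressing constitutively active human GLP-1R with the reporter. Reporter-only and GPR119 cell lines served as counterscreen controls.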
% is set by controls: 0 for no effect and ±100 for the full control effect; potency is the fitted concentration of half-maximal effect; tags give direction and shape of the fitted curve.

UniProt P43220, sequence (P43220 whole entry, looked up): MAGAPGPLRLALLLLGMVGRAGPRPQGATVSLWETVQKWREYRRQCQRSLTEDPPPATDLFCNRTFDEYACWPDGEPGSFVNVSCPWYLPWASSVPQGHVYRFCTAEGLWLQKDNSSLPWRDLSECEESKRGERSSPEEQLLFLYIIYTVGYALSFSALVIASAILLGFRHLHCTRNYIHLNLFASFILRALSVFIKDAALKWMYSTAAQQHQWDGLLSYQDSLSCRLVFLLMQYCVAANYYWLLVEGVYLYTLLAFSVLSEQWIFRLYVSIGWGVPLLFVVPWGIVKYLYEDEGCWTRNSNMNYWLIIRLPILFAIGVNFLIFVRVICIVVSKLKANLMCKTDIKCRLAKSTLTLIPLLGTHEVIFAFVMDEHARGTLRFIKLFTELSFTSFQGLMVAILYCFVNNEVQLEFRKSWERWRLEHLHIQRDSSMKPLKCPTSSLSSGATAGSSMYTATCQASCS

SMILES | Potency | activity change, negative = inhibition
O=C(Nc1ccccc1)C1=C[C@H](c2ccc(Br)cc2)C[C@H](OCc2ccc(CO)cc2)O1 | inconclusive [inhibitor, partial curve, poor fit] | 
Cc1nc(NC(=O)c2c(-c3ccccc3Cl)noc2C)sc1C | inconclusive [inhibitor, partial curve, poor fit] | 
CCCCOc1ccc(C(=O)Nc2ccc3c(c2)OCO3)cc1 | inconclusive [inhibitor, single point] | 
COc1cccc(NC(=O)Cn2c(=O)n(Cc3ccccc3)c(=O)c3c2c2cc(C)ccc2n3C)c1 |  | inactive: 11.4%
O=C(Nc1cccc(Oc2ccccc2)c1)C1Cc2c(-c3ccco3)ccnc2O1 (stereo not given) | inconclusive [inhibitor, single point] | 
CCC(C)NC(=O)CSc1nc2c(sc3ccccc32)c(=O)n1CCc1ccccc1 (stereo not given) |  | inactive: 22.4%
OC(COc1ccc(Cl)cc1)CN1CCC(Cc2ccccc2)CC1 (stereo not given) | inconclusive [inhibitor, partial curve, poor fit] | 
Cn1cc(C(=O)CCl)c2ccccc21 | inconclusive [inhibitor, single point] | 
O=C(NNc1cccc([N+](=O)[O-])c1)/C(=C\c1cccnc1)NC(=O)c1ccccc1 | inconclusive [inhibitor, full curve, poor fit] | 
Clc1cccc(CSc2nccn2-c2ccccc2)c1 |  | inactive: 0%
C/C(=N\O)C(=O)OC1CC(C)CCC1C(C)C (stereo not given) | inconclusive [inhibitor, single point] | 
CN(C)N=Nc1nc[nH]c1C(N)=O | inconclusive [inhibitor, partial curve] | 
CNC[C@@H]1Oc2cc(Br)ccc2S(=O)(=O)N([C@@H](C)CO)C[C@H]1C |  | inactive: -2.33%
O=C1CN(C(=O)c2ccc(Br)o2)C(c2ccccc2)c2cc(F)ccc2N1 (stereo not given) | active: 7.94 µM | 
c1ccc(C2CC(c3ccccc3)C(c3ccccc3)N2)cc1 (stereo not given) | inconclusive [inhibitor, single point] | 
CCCOc1ccc(C2C(=O)N(C3CCCCCC3)CC(=O)N2Cc2ccc(OC)cc2)cc1OC (stereo not given) |  | inactive: 10.9%
O=C(CCN1CCN(Cc2ccccc2)CC1)NNC(=O)Nc1cccc(C(F)(F)F)c1 | inconclusive [inhibitor, partial curve, poor fit] | 
Cc1cc(N2CCN(c3cccc(C(F)(F)F)c3)CC2)n2nc(-c3ccccc3C)nc2n1 |  | inactive: -6.48%
O=C(/C=C/c1ccccc1)NC(NC(=S)Nc1cccc(O)c1)C(Cl)(Cl)Cl (stereo not given) | inconclusive [inhibitor, partial curve, poor fit] | 
Cc1ccc(-c2csc(Nc3ccccc3)[n+]2CCc2ccccc2)cc1 | inconclusive [inhibitor, partial curve, poor fit] | 
Cc1ccc(C2(c3noc(CN(C)CCO)n3)CCCC2)cc1 | inconclusive [inhibitor, partial curve, poor fit] | 
Cc1occc1C(=O)NC1CCCN(Cc2ccc(Cl)cc2)C1 (stereo not given) | inconclusive [inhibitor, single point] | 

SMILES | Potency | activity change, negative = inhibition
CC(C)CN(CC(C)C)C(=S)NC1CCCCC1 | inconclusive [inhibitor, partial curve, poor fit] | 
Cc1cc(C)c(OCCN(C)Cc2ccccc2)c(Br)c1 | inconclusive [inhibitor, single point] | 
Cc1ccc(OCC(=O)N(Cc2ccc(Cl)cc2)CC2CCCO2)cc1C (stereo not given) | inconclusive [inhibitor, single point] | 
O=C1c2ccccc2NC(c2ccc3c(c2)OCCO3)N1c1ccc2c(c1)OCCO2 (stereo not given) | inconclusive [inhibitor, partial curve] | 
Cc1ccc(-c2nc3cc(C)c(Br)c(C)n3c2Cc2ccsc2)cc1 | inconclusive [inhibitor, partial curve, poor fit] | 
CNC(=O)OCN1C(=O)C2CC=CCC2C1=O (stereo not given) |  | inactive: 5.88%
O=C(CCC(=O)c1ccccc1)Nc1ccccc1OC(F)F | inconclusive [inhibitor, full curve, poor fit] | 
Oc1c(C(c2ccccn2)N2CCCCC2)cc(Cl)c2cccnc12 (stereo not given) | inconclusive [inhibitor, partial curve, poor fit] | 
CC(C)NC(=O)C1(C)CSCC(=O)N1CC(F)(F)F (stereo not given) |  | inactive: 6.29%
Cc1nc(N2CCN(C(=O)c3ccco3)CC2)c2oc3ccccc3c2n1 | inconclusive [inhibitor, single point] | 
O=C(NCCC(=O)N1CCN(c2ccccn2)CC1)c1ccc(Br)cc1 | inconclusive [inhibitor, partial curve, poor fit] | 
COc1ccc(C(=O)Nc2nc3ccccc3c(=O)[nH]2)cc1 | inconclusive [inhibitor, single point] | 
N#Cc1cccc(NC(=O)CNc2cccc(S(=O)(=O)N3CCCC3)c2)c1 | inconclusive [inhibitor, single point] | 
Cc1ccc(NC(=O)CN2CCN(Cc3ccccc3)CC2)cc1F | inconclusive [inhibitor, partial curve] | 
COc1ccccc1CNC(=O)CN(C)Cc1ccc(SC)cc1 | inconclusive [inhibitor, partial curve, poor fit] | 
COc1ccccc1-c1cc(N)n(S(=O)(=O)c2cccc3nsnc23)n1 | inconclusive [inhibitor, single point] | 
COc1cc(OC)c(OC)cc1CN1CCc2nc(N3CCN(c4ccccc4F)CC3)ncc2C1 |  | inactive: -7.16%
C=C1CCN([C@H](C(=O)NCc2ccccc2)C(C)C)S(=O)(=O)c2ccccc21 |  | inactive: -0.955%
CS(=O)(=O)N(CC(=O)N/N=C/c1cc([N+](=O)[O-])ccc1Cl)c1ccccc1 |  | inactive: 32.6%
O=C(Nc1ccccc1C(F)(F)F)Nc1c[nH]c(=O)[nH]c1=O |  | inactive: 12.4%
CC(=O)c1ccc(-n2cc(-c3ccc(C(C)(C)C)cc3)[n+]3c2SCCC3)cc1 | inconclusive [inhibitor, partial curve, poor fit] | 
CCOc1ccccc1C(=O)N1CCN(c2ccc(C(F)(F)F)cn2)CC1 | inconclusive [inhibitor, partial curve, poor fit] | 

SMILES | Potency | activity change, negative = inhibition
CCc1ccc2c(c1)[C@H]1OCC[C@H]1[C@@H](c1cccs1)N2 | inconclusive [inhibitor, full curve] | 
COc1ccc(Nc2c(-c3ccco3)nc3cccc(C)n23)cc1 | inconclusive [inhibitor, partial curve, poor fit] | 
Nc1nc(Nc2ccccc2)nc(NCc2ccccc2)c1[N+](=O)[O-] | inconclusive [inhibitor, single point] | 
Nn1cnnc1N/N=C/c1ccc(Cl)c([N+](=O)[O-])c1 | inconclusive [inhibitor, single point] | 
COc1cc(/C=C2\SC(c3ccc(C)cc3)=NC2=O)cc(OC)c1OC |  | inactive: 8.14%
COC(=O)C1=C(C)N(Cc2ccc(C)cc2)C(=O)/C1=C\c1ccc(O)c(OC)c1 |  | inactive: -18.6%
COc1ccc(NC(=O)Cc2csc(NC(=O)Nc3ccccc3OC)n2)c(OC)c1 | inconclusive [inhibitor, single point] | 
Cc1ccc(S(=O)(=O)NCCSc2nnnn2-c2cc(C)ccc2C)cc1 | inconclusive [inhibitor, partial curve, poor fit] | 
CC(C)c1ccc(NC(=O)c2cc(S(=O)(=O)NCC3COc4ccccc4O3)ccc2F)cc1 (stereo not given) | inconclusive [inhibitor, partial curve] | 
CCOc1ccccc1N(CC)C(=O)c1nn(C)c2c1CSc1ccccc1-2 | inconclusive [inhibitor, single point] | 
CCOc1ccccc1/C=C/c1onc(C)c1S(=O)(=O)N1CCC(C(=O)N(CC)CC)CC1 | inconclusive [inhibitor, partial curve, poor fit] | 
COC(=O)c1ccc(-c2noc(CN(C)CCC3CCCCO3)n2)cc1 (stereo not given) | inconclusive [inhibitor, single point] | 
COc1cccc(Oc2nc(-c3ccncc3)nc3ccccc23)c1 | inconclusive [inhibitor, single point] | 
O=S(=O)(NC1c2cccc3cccc(c23)C1N1CCN(CCO)CC1)c1ccccc1 (stereo not given) | inconclusive [inhibitor, single point] | 
O=C(CN(C(=O)c1csnn1)c1ccc(F)c(Cl)c1)NCc1ccc(F)cc1 | inconclusive [inhibitor, single point] | 
O=C1C2C3C=CC(C3)C2C(=O)N1/N=C/c1ccc(-c2ccccc2[N+](=O)[O-])o1 (stereo not given) | inconclusive [inhibitor, single point] | 
O=C(Cc1ccccc1)Nc1nc2ccccc2[nH]1 | inconclusive [inhibitor, full curve, poor fit] | 
Cc1ccc(-c2nc3ccccc3nc2-c2ccccc2)cc1 | inconclusive [inhibitor, partial curve, poor fit] | 
CN(C)C(=O)c1cc2c(c(-c3cccc(C4=CCCCC4)c3)n1)[C@@H](CCO)N(S(=O)C(C)(C)C)C2 (stereo not given in full) |  | inactive: 21.3%
N#CC(c1ccc(Cl)cc1)(c1ncc(C(F)(F)F)cc1Cl)N1CCOCC1 (stereo not given) | inconclusive [inhibitor, single point] | 
CS(=O)(=O)N(Cc1ccccc1)c1ccccc1C(=O)Nc1ccccc1C(=O)NCc1ccco1 | inconclusive [inhibitor, single point] | 
